The supplement of paper PMC12217912
This is one part of the list. Sequences were assembled here from the parent chain. Values near 0.05 are background.

B1: TEV protease; numbered along this chain (parent)
chain: MGESLFKGPRDYNPISSSICHLTNESDGHTTSLYGIGFGPFIITNKHLFRRNNGTLVVQSLHGVFKVKDTTTLQQHLVDGRDMIIIRMPKDFPPFPQKLKFREPQREERICLVTTNFQTKSMSSMVSDTSCTFPSGDGIFWKHWIQTKDGQCGSPLVSTRDGFIVGIHSASNFTNTNNYFTSVPKNFMELLTNQEAQQWVSGWRLNADSVLWGGHKVFMVKPEEPFQPVKEATQL

Variants of: B1
Assay: raw area under fraction-flipped curve 0-4 h after induction (AUC4h, not background-subtracted), DNA-recorder readout of cleavage of the substrate (dimensionless); higher = more cleavage of the substrate by the protease variant
Details: temperature: 34 °C; time window: 0-4 h after rhamnose induction
Description: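 In vivo DNA recorder in E. coli TOP10(DE3) ΔrhaA at 34 °C. Each TEVp single-site mutant (parent TEVp 0) is paired with a single-site variant of the 7-mer TEVs (canonical ENLYFQ|S). The substrate sits between flexible linkers in a Bxb1-sfGFP-TEVs-SsrA fusion, so cleavage stabilises Bxb1 and speeds flipping of a recombination array, read by NGS. The value is the raw area under the fraction-flipped curve over 0-4 h after rhamnose induction (AUC4h), with ≥20 reads per time point. It is not background-subtracted; inactive controls average about 0.047.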
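Also: Bxb1 expression induced with 0.2% (w/v) L-rhamnose at OD600 near 0.5, cultures sampled hourly, flipped fraction per protease–substrate barcode pair counted by paired-end Illumina sequencing.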

Row | Variant | area with substrate ENLAFQS | area with substrate ENLDFQS | area with substrate ENLEFQS | area with substrate ENLFFQS | area with substrate ENLGFQS | area with substrate ENLHFQS | area with substrate ENLIFQS | area with substrate ENLKFQS | area with substrate ENLLFQS | area with substrate ENLMFQS | area with substrate ENLNFQS | area with substrate ENLPFQS | area with substrate ENLQFQS | area with substrate ENLRFQS | area with substrate ENLSFQS | area with substrate ENLVFQS | area with substrate ENLCFQS | area with substrate ENLWFQS | area with substrate ENLTFQS
1 | Q198F | 0.0708 | 0.0612 | 0.0625 | 0.107 | 0.0675 | 0.0747 | 0.0828 | 0.0764 | 0.0636 | 0.0718 | 0.0648 | 0.0633 | 0.0706 | 0.0838 | 0.054 | 0.0717 |  |  | 
2 | W199G | 0.0464 |  | 0.0592 | 0.0806 |  | 0.0574 |  | 0.0601 | 0.047 | 0.0506 | 0.0588 | 0.0548 |  |  | 0.0544 |  | 0.0741 | 0.0689 | 
3 | V200Q | 0.041 | 0.0658 |  |  | 0.0613 |  |  | 0.0779 |  |  |  |  |  |  |  |  |  |  | 
4 | S201D | 0.0699 | 0.0622 | 0.0634 | 0.065 |  | 0.0749 | 0.0737 | 0.0713 |  |  | 0.0534 | 0.0659 | 0.0749 |  | 0.0594 |  | 0.0623 | 0.0703 | 
5 | G202F | 0.0585 | 0.0746 | 0.0694 | 0.0577 |  |  |  | 0.0594 | 0.052 |  | 0.0442 | 0.036 | 0.0744 | 0.0727 | 0.0597 | 0.0606 | 0.0686 | 0.0664 | 0.074
6 | R204I | 0.063 | 0.0599 | 0.0624 | 0.0871 |  | 0.0727 | 0.0718 | 0.0672 | 0.0647 | 0.0577 | 0.0597 | 0.0613 | 0.0615 | 0.0711 | 0.0585 | 0.0757 | 0.0752 | 0.0736 | 
7 | N206F | 0.0677 | 0.06 | 0.0564 | 0.11 |  |  | 0.0786 | 0.0836 | 0.0631 |  | 0.0678 | 0.0502 | 0.0588 | 0.0679 | 0.0647 | 0.0659 | 0.0781 |  | 
8 | A207I | 0.0674 |  | 0.059 | 0.0632 |  |  |  | 0.0623 | 0.0587 |  |  | 0.0715 |  | 0.0444 | 0.0493 | 0.0871 | 0.039 | 0.0503 | 
9 | A207S | 0.0674 | 0.0657 |  | 0.0837 | 0.0718 | 0.0569 | 0.0678 | 0.0714 | 0.0848 |  | 0.0728 |  | 0.0705 | 0.0794 | 0.0751 | 0.0773 | 0.0849 | 0.0782 | 
10 | D208C | 0.0579 | 0.0592 | 0.0741 | 0.0684 |  | 0.0608 | 0.0763 | 0.0704 |  |  |  | 0.059 | 0.075 |  | 0.0595 |  | 0.0517 |  | 
11 | D208F | 0.0651 | 0.0629 |  | 0.07 |  | 0.0682 |  | 0.0617 | 0.0498 |  | 0.0523 | 0.0652 | 0.0614 | 0.067 | 0.0641 | 0.0678 | 0.0399 | 0.0779 | 
12 | D208I | 0.064 | 0.064 | 0.0624 | 0.0843 | 0.0648 | 0.0702 | 0.0656 | 0.0698 |  | 0.0328 | 0.0693 | 0.0665 |  |  | 0.0566 | 0.0626 | 0.0571 | 0.0561 | 0.0602
13 | D208R | 0.0613 | 0.0698 | 0.0477 | 0.067 |  | 0.0516 | 0.0707 |  |  |  | 0.0604 | 0.0576 |  | 0.0314 | 0.0619 | 0.0453 | 0.0639 |  | 
14 | D208T | 0.0666 | 0.0881 | 0.0588 | 0.0737 |  | 0.0714 | 0.062 | 0.0583 | 0.0754 |  | 0.0661 | 0.0692 |  |  | 0.0777 |  | 0.0539 | 0.0645 | 0.0572
15 | D208W | 0.0606 | 0.0634 | 0.0546 | 0.0522 | 0.0691 | 0.0694 | 0.0596 | 0.0576 | 0.0538 | 0.0922 | 0.0657 | 0.0571 | 0.0589 | 0.0628 | 0.0646 | 0.0818 |  | 0.0606 | 0.0372
16 | D208Y | 0.0524 | 0.0756 | 0.0587 | 0.0604 | 0.0667 | 0.052 |  | 0.055 | 0.058 |  | 0.0553 | 0.0633 |  | 0.0632 | 0.0597 | 0.0253 | 0.0611 | 0.0587 | 
17 | S209P | 0.0631 | 0.0591 |  | 0.0679 | 0.0651 | 0.0618 | 0.0596 |  | 0.0829 | 0.051 | 0.0662 | 0.0596 | 0.0705 | 0.0732 |  |  |  |  | 
18 | W212V | 0.0787 | 0.0704 | 0.072 | 0.086 | 0.0746 | 0.0618 | 0.079 | 0.0892 |  | 0.0511 |  | 0.0614 | 0.0742 | 0.0841 | 0.0801 | 0.126 | 0.0773 | 0.0839 | 0.0746
19 | G214C | 0.0449 |  |  |  |  |  |  | 0.0689 |  |  |  |  |  |  | 0.0633 |  |  |  | 
20 | G214S | 0.0621 | 0.0824 |  |  |  | 0.0489 | 0.0642 |  |  | 0.0681 |  |  |  |  |  |  | 0.0762 |  | 
21 | H215Q | 0.0703 | 0.0613 | 0.0659 | 0.0687 | 0.0645 | 0.0568 |  | 0.0338 | 0.0524 | 0.0371 | 0.069 | 0.063 | 0.0591 |  | 0.0486 | 0.0694 | 0.0496 | 0.0605 | 
22 | H215V | 0.0573 |  |  | 0.0542 |  | 0.0655 |  | 0.0592 |  | 0.0684 |  | 0.0612 |  | 0.0629 | 0.0652 |  | 0.0612 | 0.0524 | 
23 | K216A | 0.0558 | 0.0586 |  | 0.0818 | 0.0539 |  |  | 0.0685 |  |  | 0.0593 |  |  |  | 0.0553 | 0.0675 | 0.0585 |  | 
24 | K216M | 0.0582 |  | 0.0427 |  |  |  | 0.0653 | 0.0691 |  | 0.0802 |  | 0.0623 | 0.0767 |  |  |  |  |  | 0.0769
25 | K216N | 0.0801 |  | 0.0622 | 0.0544 |  | 0.0666 | 0.0382 | 0.0845 |  | 0.069 | 0.0239 | 0.0651 |  |  | 0.0657 | 0.0902 | 0.0744 |  | 
26 | K216P | 0.0578 | 0.0556 |  | 0.0679 | 0.0557 |  |  | 0.0729 | 0.0728 |  |  | 0.0622 |  |  |  |  |  |  | 
27 | K216V | 0.0653 | 0.0608 | 0.0613 | 0.0867 | 0.0601 |  |  |  |  |  | 0.0777 | 0.0569 |  |  | 0.0772 |  |  | 0.0806 | 0.0933
28 | V217W | 0.0645 |  | 0.0631 | 0.0798 |  | 0.0371 |  |  |  |  | 0.0712 | 0.0473 | 0.0485 |  |  |  |  |  | 
